# The full ranking holds about 81,000 sequences; the median of “one-hybrid fitness for binding NBS DNA” is about -0.1, and the highest 2% start at about 0.36. The list shows a part of the results.
# B1: Caulobacter ParB omega fusion; a variant is named by its letters at X, in order, B8GW30 (parent)
# chain: MESVVVGEPGMSEGRRGLGRGLSALLGEVDAAPAQAPGEQLGGSREAPIEILQRNPDQPRRTFREEDLEDLSNSIREKGVLQPILVRPSPDTAGEYQIVAGERAWRAAQRAGLKTVPIMVRELDDLAVLEIGIIENVQRADLNVLEEALSYKVLMEKFERTQENIAQTIGKSXSHVANXMRLLXLPDEVQSYLVSGELTAXHARAIAAAADPVALAKQIIEGGLSVRETEALARKAPNLSAGKSKGGRPPRVKDTDTQALESDLSSVLGLDVSIDHRGSTGTLTITYATLEQLDDLCNRLTRGI
# Variants of: B1
# Assay: one-hybrid fitness for binding NBS DNA (the Noc-binding site; scaled: cognate 1, non-cognate 0); higher = stronger binding
# Details: with NBS DNA site
# Outline: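 Pre- and post-selection plasmids were Illumina-sequenced, three replicate libraries were pooled, and any variant with under 10 reads was removed. The libraries were Caulobacter ParB with four specificity codons randomised, selected in E. coli USO through a HIS3 reporter whose site is 19 bp from the promoter. Cells grew 48 hours at 37°C on M9 without histidine, with 0.1 mM IPTG and 5 mM 3-AT. Fitness is the log change in variant-to-wild-type read ratio, rescaled against cognate and non-cognate.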
row,Variant,one-hybrid fitness for binding NBS DNA
1,PPTN,≤ 0.2
2,QFML,≤ 0.2
3,STFR,≤ 0.2
4,THHS,≤ 0.2
5,PGKE,≤ 0.2
6,RLYT,0.391
7,TAHG,≤ 0.2
8,LTRL,≤ 0.2
9,PVNM,≤ 0.2
10,DVNG,≤ 0.2
11,LFRR,≤ 0.2
12,HSLE,≤ 0.2
13,ERST,≤ 0.2
14,HGMR,≤ 0.2
15,ITKI,≤ 0.2
16,AVQR,≤ 0.2
17,QYHS,0.417
18,FVWT,≤ 0.2
19,SHMM,≤ 0.2
20,RVRE,≤ 0.2
21,RWNS,0.237
22,PCWK,0.33
23,LLPK,≤ 0.2
24,RTDW,≤ 0.2
25,MPDG,≤ 0.2
26,PDKW,≤ 0.2

row,Variant,one-hybrid fitness for binding NBS DNA
1,RCCL,≤ 0.2
2,YYWC,≤ 0.2
3,YGQL,≤ 0.2
4,FDPR,≤ 0.2
5,TCIV,≤ 0.2
6,KSAQ,≤ 0.2
7,YSNS,≤ 0.2
8,DRFH,≤ 0.2
9,FNIG,≤ 0.2
10,AREN,≤ 0.2
11,CNTR,≤ 0.2
12,HTIA,≤ 0.2
13,PPLR,≤ 0.2
14,HMRT,≤ 0.2
15,TEAK,≤ 0.2
16,EDFT,≤ 0.2
17,FYMV,≤ 0.2
18,EAVV,≤ 0.2
19,RMLM,≤ 0.2
20,YTLN,≤ 0.2
21,PTGK,≤ 0.2
22,EFEG,≤ 0.2
23,KETR,≤ 0.2
24,EVWG,≤ 0.2
25,NCSN,≤ 0.2
26,SAGR,≤ 0.2

row,Variant,one-hybrid fitness for binding NBS DNA
1,QTVT,0.517
2,KVVM,≤ 0.2
3,QGMC,≤ 0.2
4,QKVK,≤ 0.2
5,SHRG,≤ 0.2
6,INTV,≤ 0.2
7,FNAT,≤ 0.2
8,PEST,≤ 0.2
9,PLWG,≤ 0.2
10,KLKY,≤ 0.2
11,QKSP,≤ 0.2
12,YGES,≤ 0.2
13,QRSN,0.366
14,EPLM,≤ 0.2
15,ACTS,≤ 0.2
16,PINS,≤ 0.2
17,QEES,≤ 0.2
18,PMAC,≤ 0.2
19,GGII,≤ 0.2
20,QVPV,≤ 0.2
21,RNQF,≤ 0.2
22,YGGC,≤ 0.2
23,RRNV,0.456
24,AFIL,≤ 0.2
25,LCKL,≤ 0.2
26,HQLI,≤ 0.2

row,Variant,one-hybrid fitness for binding NBS DNA
1,GCAV,≤ 0.2
2,QSVY,≤ 0.2
3,MEKG,≤ 0.2
4,HKTS,≤ 0.2
5,DMHA,≤ 0.2
6,YSSM,≤ 0.2
7,HCCR,≤ 0.2
8,HEIR,≤ 0.2
9,GIEG,≤ 0.2
10,TWQE,≤ 0.2
11,YPTH,≤ 0.2
12,RFIW,≤ 0.2
13,RTQR,0.575
14,PYFG,≤ 0.2
15,NGCR,≤ 0.2
16,YPTM,≤ 0.2
17,KILR,≤ 0.2
18,RRAH,0.406
19,WYVG,≤ 0.2
20,QTWL,≤ 0.2
21,ASPW,≤ 0.2
22,GMKY,≤ 0.2
23,PYNV,≤ 0.2
24,WDVI,≤ 0.2
25,VQTL,≤ 0.2
26,VMGT,≤ 0.2

row,Variant,one-hybrid fitness for binding NBS DNA
1,QLVM,≤ 0.2
2,SSVY,≤ 0.2
3,VDIV,≤ 0.2
4,QYDK,≤ 0.2
5,RYWK,≤ 0.2
6,VRSD,≤ 0.2
7,ELNT,≤ 0.2
8,RGVP,≤ 0.2
9,CCCT,≤ 0.2
10,QTSC,0.214
11,RQMP,≤ 0.2
12,GATL,≤ 0.2
13,NRDY,≤ 0.2
14,HGWS,≤ 0.2
15,PRGQ,≤ 0.2
16,TSIY,≤ 0.2
17,IATN,≤ 0.2
18,TRKQ,≤ 0.2
19,EQRG,≤ 0.2
20,YTSL,≤ 0.2
21,CYCT,≤ 0.2
22,CTGM,≤ 0.2
23,YHPT,≤ 0.2
24,MFTM,≤ 0.2
25,HSER,≤ 0.2
26,FDTD,≤ 0.2

row,Variant,one-hybrid fitness for binding NBS DNA
1,ASKL,≤ 0.2
2,WWDR,≤ 0.2
3,YPQL,≤ 0.2
4,SSCQ,≤ 0.2
5,HFAC,≤ 0.2
6,NTNF,≤ 0.2
7,WKSS,≤ 0.2
8,NVEV,≤ 0.2
9,VYQL,≤ 0.2
10,QKHD,≤ 0.2
11,MNRW,≤ 0.2
12,ERRD,≤ 0.2
13,QRHS,0.718
14,VSER,≤ 0.2
15,EQMT,≤ 0.2
16,RFRY,≤ 0.2
17,RTFY,≤ 0.2
18,MWAV,≤ 0.2
19,QQNL,≤ 0.2
20,QREG,≤ 0.2
21,QQYG,≤ 0.2
22,VPEI,≤ 0.2
23,HNEF,≤ 0.2

# — a collection of fitness landscapes (doi:10.1016/j.celrep.2020.107928)
